Data from PubChem BioAssay AID1159614 (National Center for Advancing Translational Sciences (NCATS), 2016).
The campaign covered roughly 45,000 compounds. About 65 (0.1%) were called active. Calls come from the whole dose curve; as a rule, active = well fitted activation curve with a large enough effect; inconclusive = small, poorly fitted or top-dose-only effect; inactive = no such curve, though single readings can be large or run the other way. This is one part of the list.

Target: Galactocerebrosidase (Homo sapiens) (UniProt P54803)
Chain of UniProt P54803 (P54803 whole entry, looked up): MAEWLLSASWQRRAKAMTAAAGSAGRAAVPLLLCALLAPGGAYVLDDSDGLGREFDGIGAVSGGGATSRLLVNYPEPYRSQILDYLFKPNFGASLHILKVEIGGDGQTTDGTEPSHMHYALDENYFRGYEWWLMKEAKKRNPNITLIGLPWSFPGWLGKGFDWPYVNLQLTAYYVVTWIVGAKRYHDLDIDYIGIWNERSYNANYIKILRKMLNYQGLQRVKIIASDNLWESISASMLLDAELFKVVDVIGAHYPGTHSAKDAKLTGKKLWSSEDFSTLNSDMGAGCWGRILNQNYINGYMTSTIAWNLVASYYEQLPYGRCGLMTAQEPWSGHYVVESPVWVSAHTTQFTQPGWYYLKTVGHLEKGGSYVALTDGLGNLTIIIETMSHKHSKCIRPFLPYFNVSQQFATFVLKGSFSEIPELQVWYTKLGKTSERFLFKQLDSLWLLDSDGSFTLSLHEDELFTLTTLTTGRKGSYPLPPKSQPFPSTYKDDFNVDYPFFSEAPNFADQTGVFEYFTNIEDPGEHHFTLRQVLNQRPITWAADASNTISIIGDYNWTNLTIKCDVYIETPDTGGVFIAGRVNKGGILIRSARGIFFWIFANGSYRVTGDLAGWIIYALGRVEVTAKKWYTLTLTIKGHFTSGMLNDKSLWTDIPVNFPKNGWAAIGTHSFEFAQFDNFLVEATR
Experiment: A Novel Cell-Based Assay to Identify Small Molecules for B -Galactocerebrosidase; note: 0% is about no effect; nearly all actives have a fitted effect of over 65% in size
Details: 145M-Twi-hGALC-G270D cells (Twitcher mouse brain line with human GALC G270D), HMU-beta-Gal fluorescence, 48 h; series mostly up to 57.5 µM; activation: at the top concentration
Procedure, shortened: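 Fluorogenic HMU-b-Gal hydrolysis (0.1 mM final, pH 5.2 citrate-phosphate with 1 mg/mL sodium taurocholate; carbonate stop buffer) measures mutant GALC activity after compound treatment of live 145M-Twi Twitcher brain cells stably carrying human GALC-G270D, with wild-type GALC line alongside; activation sought.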

activation, inactive:
CC(=O)Nc1ccccc1 -12.7%
Cc1nc2nncn2c(NCc2ccc(F)cc2)c1C -17.2%
COc1cc(OC)cc(C(=O)Nc2ccc(S(=O)(=O)Nc3ncccn3)cc2)c1 -2.77%
COCCNc1nc2c(S(=O)(=O)c3ccc(C)c(C)c3)nnn2c2ccc(Cl)cc12 0.717%
CCc1noc(-c2ccc(N3CCCCC3C)c([N+](=O)[O-])c2)n1 (stereo unspecified) -1.68%
O=C(Nc1nnc(S(=O)(=O)Nc2ccccc2)s1)c1ccccc1Cl -17.6%
Cc1ccc(NC(=O)CCS(=O)(=O)c2cc3c4c(c2)CCN4C(=O)CC3)c(C)c1 -6.18%
O=C(NCc1ccc2c(c1)CCN2C(=O)c1ccc(Cl)cc1)c1cccc(F)c1 -18.9%
CCCCN(C)C(=O)C1CCC(CNS(=O)(=O)c2ccc(Cl)cc2)CC1 (stereo unspecified) -21.1%
CCC(Oc1ccccc1)C(=O)Nc1cc(-c2ccccc2OC)nn1-c1ccccc1 (stereo unspecified) -10.2%
CCOC(=O)c1c(S(=O)(=O)NCC(=O)NCc2cccc(C)c2)c(C)n(C)c1C 2.98%
Cc1ccc(-c2nc3c(c(SCC(=O)Nc4ccccc4Cl)n2)Cc2c(CO)cnc(C)c2O3)cc1 -4.04%
Cc1ccc(CS(=O)(=O)c2ncc(Cl)c(C(=O)Nc3nc4ccc(F)cc4s3)n2)cc1 -18.3%
Cc1cccc(N2CCN(C(=O)CCc3c(C)nc4c(c3C)c(=O)n(C)c(=O)n4C)CC2)c1C -4.47%
Cc1ccc(OC(=O)c2cc(-c3ccc(Cl)cc3)on2)c(C)c1 -14.1%
CCOc1ccc(-n2c(=O)c3sc4ccccc4c3n(Cc3cccc(C)c3)c2=O)cc1 5.27%
O=C(NC1(C(F)(F)F)C(=O)Nc2c1c(=O)[nH]c(=O)n2-c1ccc(F)cc1)c1ccccc1 (stereo unspecified) -3.91%
COc1ccc(C2C(=O)N(C3CCCCC3)CC(=O)N2CCC2=CCCCC2)cc1 (stereo unspecified) -11.8%
COc1ccc(-n2cc(C(=O)OCc3ccc(F)c(F)c3)c3ccccc3c2=O)cc1 4.9%
CCc1ccc(NS(=O)(=O)c2ccc3[nH]cc(C(=O)NCCc4cccc(C)c4)c(=O)c3c2)cc1 -11.7%
COc1ccc2c(c1)sc1ncc(C(=O)NCc3ccc(Cl)cc3)c(=O)n12 -7.06%
CCN1CCN(c2oc(/C=C/c3ccc(OC)c(OC)c3)nc2C#N)CC1 -2.51%
O=C(NCc1ccccc1)C(=O)NCC(c1ccc2c(c1)OCO2)N1CCOCC1 (stereo unspecified) -9.43%
Clc1ccc(-c2cn3ncsc3n2)cc1 -14.7%
CCOc1ccc(CCNC(=O)Cn2ncn3c(cc4sc(C)cc43)c2=O)cc1OCC -1.81%
CC1CCC(NC(=O)c2ccc3c(c2)N(Cc2ccccc2F)C(=O)c2ccccc2S3=O)CC1 (stereo unspecified) -14.3%
C[C@]12CCC(=O)C=C1CC[C@@H]1[C@@H]2[C@@H](O)C[C@@]2(C)[C@H]1CC[C@]2(O)C(=O)CO -16%
CCCCN1C(=O)c2[nH]nc(-c3ccccc3O)c2C1c1cc(Br)c(O)c(OC)c1 (stereo unspecified) -3.14%
O=c1c2cccnc2n(Cc2ccccc2F)c(=O)n1Cc1ccc(F)cc1 -7.16%
COc1cccc(CNC(=O)c2ccc3nc(N4CCCCC4)sc3c2)c1OC -7.63%
COc1ccccc1NC(=O)c1cc(S(=O)(=O)NCCc2ccccc2)ccc1F -2.28%
Cc1ccc(CN2CCSc3ccc(C(=O)N4CCN(c5ccc(Cl)cc5)CC4)cc32)cc1 -9.45%
CCOCCCNC(=O)C(c1ccc(OC)cc1)N(Cc1ccc2c(c1)OCO2)C(=O)c1ccc(NC(C)=O)cc1 (stereo unspecified) -22.7%
O=S(=O)(Nc1ccc2nc(-c3ccc(F)cc3)oc2c1)c1ccccc1 -13.4%
CCCCc1nn2c(=O)cc(COC(=O)c3ccc(NC(=O)c4ccccc4Cl)cc3)nc2s1 -14.6%
COc1ccc(NC(=O)Cn2c3ncccc3c(=O)n2-c2ccc(C)c(C)c2)c(OC)c1 -16.2%
CC(=O)Nc1cc(C(=O)NCc2ccccc2Cl)ccc1Sc1ccc(F)cc1 -7.88%
Cc1cc(C)cc(NC(=O)c2cc(S(=O)(=O)NCCC3=CCCCC3)ccc2F)c1 -4.77%
Cc1ccc(NC(=O)c2cc(S(=O)(=O)N3CCCCC3)c[nH]2)cc1N(C)C -15.6%
Cc1nnc(NC(=O)CSc2nc3c([nH]c4ccccc43)c(=O)n2-c2ccc(Cl)cc2)s1 -6.05%
Cc1ccc2[nH]c(=O)c3cc(C(=O)N(C)c4ccc(Br)cc4)sc3c2c1 2.83%
COc1ccc2c(c1)CC(C(=O)NCc1ccc(F)cc1)CO2 (stereo unspecified) -11.5%
Cc1cc(OCC(=O)Nc2ccc(C(=O)OC3CCCCC3)cc2)cc(C)c1Cl -8.26%
COc1ccc(CCNCc2c(C(=O)O)c(C)n(Cc3c(F)cccc3Cl)c2C)cc1OC -9.03%
CCOc1ccc2nc(N3CCN(C(=O)c4ccc5c(c4)CCCC5)CC3)sc2c1 -20%
CCc1ccc(NC(=O)C2CCN(c3nc(-c4ccc(OC)cc4)no3)CC2)cc1 -0.229%
Cc1cccc(C(=O)Nc2ccc3oc(-c4cccc5c(Br)cccc45)nc3c2)c1 -19.2%
COc1ccc2c(c1)c1c(c(=O)n(-c3ccc(F)c(Cl)c3)c(=O)n1Cc1cccc(C)c1)n2C -5.99%
Cc1ccc(C(=O)Nc2c(C(=O)NC(C)(C)C)oc3ccccc23)cc1 -22.6%
CCOc1ccc2c(c1)c(=O)c(C(=O)c1ccccc1)cn2Cc1ccccc1 -10.9%
Cc1ccc2c(c1)C(=O)OC(C(=O)Nc1ncc(Cc3ccccc3Cl)s1)C2 (stereo unspecified) -0.551%
Cc1ccc(-c2cc(-c3ccc4c(c3)NC(=O)CO4)nc3c2COc2ccccc2-3)cc1 -3%
Cc1cccc(N2C(=O)N(Cc3cc(=O)n4ccccc4n3)c3ccccc3S2(=O)=O)c1 21.6%
COc1ccc(CNC(=O)Cn2nc3c(cc2=O)CCCC3)cc1 -9.99%
CCOC(=O)c1ccc(NC(=O)CSc2c(C(C)C)cnc3c2c(=O)n(C)c(=O)n3C)cc1 -9.13%
Cc1ccc(-n2nc(C)c3nc(CCC(=O)Nc4cccc(C)c4C)c(=O)n(C)c32)cc1 -12.2%
Cc1cc(C)c2c(CC(=O)Nc3ccc(F)cc3)coc2c1 -15.3%
Cc1cccc(NC(=O)N2CCC(CN3CCC(C)CC3)CC2)c1C -8.55%
CC(=O)Nc1c(C)nn(-c2ccccc2)c1N1CCC(C(=O)Nc2ccc(F)cc2Cl)CC1 -6.88%
CCCCCCC[N+](CC)(CC)CCCCc1ccc(Cl)cc1 -17.6%
Cc1ccccc1CNC(=O)C1CCN(c2nnc(-n3c(C)ccc3C)s2)CC1 -2.05%
